According to ChEMBL document CHEMBL1201862, “PubChem BioAssay data set” (2004):
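1) Cells in 96-well plates. 2) Compound, 48 h, 5 concentrations. 3) Linear interpolation between surrounding doses. 4) Unreached endpoint = highest concentration. GI50: concentration for 50% inhibition of growth.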 Active and inactive are the calls of the source. Rule as the data show it: active = GI50 up to about 1.1 µM and inactive = higher.

What follows are compounds tested on NCI-H322M (assay: NCI anticancer screen, dose series, 48 h).

Structure (SMILES) | GI50
C[C@H](CN1CC(=O)NC(=O)C1)N1CC(=O)NC(=O)C1 | inactive: > 100 µM
CC(=O)OCC1OC(n2cc(F)c(=O)[nH]c2=O)C(OC(C)=O)C1OC(C)=O (stereo not given) | inactive: > 38 µM
Cc1ccc(C2NC(=O)c3ccccc3N2)s1 (stereo not given) | inactive: 6.92 µM
Cn1c2c(c3ccccc31)CCN(CCCCN1CCN(c3ccccc3)CC1)C2=O | inactive: 27.2 µM
O=C1CCC2(c3ccc(Cl)cc3)Nc3ccccc3N12 (stereo not given) | inactive: > 100 µM
COc1cc(C2C3=C(COC3=O)Oc3cc4c(cc32)OCO4)cc(OC)c1O (stereo not given) | active: 0.0223 µM
O=C(O)C(CCc1ccccc1)N1C(=O)c2ccccc2C1=O (stereo not given) | inactive: > 100 µM
CCOc1ccc(OCC)c([P+](c2ccccc2)(c2ccccc2)c2ccccc2)c1 | inactive: 2.6 µM
COC(=O)N/N=C(/CC1(O)C(=O)Nc2ccc([N+](=O)[O-])cc21)c1ccccc1 (stereo not given) | inactive: > 47.9 µM
CCOC(=O)CCC(C(=O)OCC)n1nnc2ccc(Nc3c(C)[n+]([O-])c4cc(F)c(OCC)cc4[n+]3[O-])cc21 (stereo not given) | inactive: 45.6 µM
CCOC(=O)c1c(N)sc2c1CC(C)CC2 (stereo not given) | inactive: 37.5 µM
CN(C)C1=Nc2ccccc2C(=S)N2CSCC12 (stereo not given) | inactive: > 100 µM
COC(=O)c1ccccc1Nc1ccccc1C(=O)OC | inactive: > 100 µM
COc1ccc(/C=C2\CCC(CNc3ccc(S(N)(=O)=O)cc3)C2=O)cc1 (stereo not given) | inactive: > 100 µM
O=[N+]([O-])c1cccc2nccc(NCCCO)c12 | inactive: 17.7 µM
Cc1nc2ccc(F)cc2c2c1CCN2c1ccc(Cl)cc1 | inactive: 11.2 µM
Cc1cccc2c1C(=O)OC2(c1cccc2ccccc12)c1cccc2ccccc12 | inactive: > 100 µM
COc1ccc(-c2onc(-c3c(C)cc(C)cc3C)c2C2=NCCN2)cc1 | inactive: 45.1 µM
CCC(C)(C)n1c(C)nc2c1C(=O)c1ccccc1C2=O | inactive: 70.8 µM
CC(=O)N1[C@H](C(=O)O)CS[C@H]1c1ccncc1 | inactive: > 100 µM
ClC1(Cl)C2CCOC21n1cnc2ccccc21 (stereo not given) | inactive: > 100 µM
Cc1cc(S(=O)(=O)O)c(NC(=O)C(=O)C2C=CCS2(=O)=O)cc1Cl (stereo not given) | inactive: > 100 µM
CC(C)(C)c1ccc2c(c1)C(O)(c1ccccc1)c1cc(C(C)(C)C)ccc1C2(O)C(F)(F)F (stereo not given) | inactive: 2.16 µM

Structure (SMILES) | GI50
Nc1nc(N)c2ncn(Cc3ccccc3CO)c2n1 | inactive: > 100 µM
O=C1OC(c2ccccc2)=N/C1=C/NC(Cc1c[nH]c2ccccc12)C(=O)O (stereo not given) | inactive: > 100 µM
CCOC(=O)[C@H]1Nc2c(cccc2[N+](=O)[O-])C2c3ccccc3CC21 (stereo not given in full) | inactive: > 100 µM
COc1ccc(C2C3=C(Nc4ncnn42)c2ccccc2OC3c2ccccc2)cc1 (stereo not given) | inactive: 13.9 µM
CC1(O)C=CC(=O)C=C1 | inactive: > 39.4 µM
COc1ccc(C(O)C(c2ccc(OCc3ccccc3)cc2)c2ccc(OCc3ccccc3)cc2)cc1 (stereo not given) | inactive: > 100 µM
COc1ccc(C2Oc3cc(OC)c(OC)cc3C2CCl)cc1OC (stereo not given) | inactive: > 100 µM
COc1cc(/C=C2\C[C@H]3[C@@H]4CC=C5C[C@@H](O)CC[C@]5(C)[C@H]4CC[C@]3(C)C2=O)cc(OC)c1OC | inactive: 41.1 µM
C/C(=N/NC(=O)c1ccccc1S(N)(=O)=O)C(CN1CCCCC1)C(C1=C(O)C2C=CC=CC2OC1=O)c1ccccc1 (stereo not given) | inactive: > 100 µM
CNN1C(=O)c2c(C)c(C)c(C#N)c(N)c2C1=O | inactive: 18.7 µM
CCC(C)(C)/C(CC(O)(C(F)(F)F)C(F)(F)F)=N\O | inactive: > 100 µM
[O-][n+]1onc(-c2ccccc2)c1-c1no[n+]([O-])c1-c1c(-c2ccccc2)no[n+]1[O-] | inactive: 22.6 µM
CN(COC(=O)C(C)(C)C)c1nc(N(C)COC(=O)C(C)(C)C)nc(N(C)COC(=O)C(C)(C)C)n1 | inactive: > 100 µM
C=C1CN(Cc2ccccc2)[C@@H]2CCCCC[C@H](C#N)[C@H]12 | inactive: > 92.3 µM
CC1(CO)C(=O)OC12CCCCC2 (stereo not given) | inactive: > 100 µM
N#Cc1ccc(-c2nc3c(N)ncnc3o2)cc1 | inactive: > 100 µM
CC1(C)OP(=O)(O)CC1=O | inactive: > 100 µM
CC1=C2C(O)C(C(C)CO)C(O)CC2(C)C(O)CC1 (stereo not given) | inactive: > 100 µM
Cc1cc(O)c(C(=O)CC2(O)C(=O)Nc3c(Cl)cc(Cl)cc32)c(=O)o1 (stereo not given) | inactive: > 100 µM
COC(=O)C12Oc3ccc(-c4ccc5c(c4O)C(=O)C4=CCC(C)C(O)C4(C(=O)OC)O5)c(O)c3C(=O)C1=CCC(C)C2O (stereo not given) | inactive: 3.35 µM
CCOC(=O)c1cc(-c2ccc(OC)cc2)c([N+](=O)[O-])[nH]1 | inactive: > 10 µM
COC(=O)C(C(=O)C(=O)Nc1ccc(C)cc1C)c1csc(-n2nc(-c3ccccc3)cc2-c2ccccc2)n1 (stereo not given) | inactive: > 100 µM
NC(=O)c1ncn(C2OC(CO)C(O)C2O)c1NC(=S)NC(=O)c1ccccc1 (stereo not given) | inactive: > 100 µM

Structure (SMILES) | GI50
O=C1N=C(SC(SC2=NC(=O)C3(NN2)c2ccccc2-c2ccccc23)=C(SC2=NC(=O)C3(NN2)c2ccccc2-c2ccccc23)SC2=NC(=O)C3(NN2)c2ccccc2-c2ccccc23)NNC12c1ccccc1-c1ccccc12 | inactive: 6.67 µM
C/C(=C1/N=C(c2cc([N+](=O)[O-])ccc2Cl)N(C2=CC=C(Cl)CC2)C1=O)c1cc2ccccc2oc1=O | inactive: 64.4 µM
CC(=O)c1ccc2c3c1O[C@H]1c4[nH]c5ccccc5c4C[C@@]4(O)[C@@H](C2)N(CC2CC2)CC[C@]314 | active: 0.0542 µM
CSCCCCCCCCCCOc1ccc(C=C2C(=C(C#N)C#N)c3ccccc3C2=C(C#N)C#N)cc1 | inactive: 16.9 µM
CN(C)/C(=N\C#N)N(Cc1ccccc1)Cc1ccccc1 | inactive: > 100 µM
COc1ccc(-c2cc(=O)c3ccccc3o2)cc1N | inactive: 83.2 µM
Cc1c2c(Cl)c3c(c(Cl)c2c(C)c2c(Cl)c4c(c(Cl)c12)C(c1ccccc1)(c1ccccc1)C4(c1ccccc1)c1ccccc1)C(c1ccccc1)(c1ccccc1)C3(c1ccccc1)c1ccccc1 | inactive: > 100 µM
O=C(c1cccs1)c1nccc2c1cnc1ccccc12 | inactive: > 100 µM
N#CC(C#N)C1CN2CCC1CC2 (stereo not given) | inactive: > 100 µM
Nc1ccc2c(c1)C1Oc3ccccc3CC1CO2 (stereo not given) | inactive: > 100 µM
Cc1ccc(S(=O)(=O)N/N=C2\C=CC3(CC2)C(=O)N(I)c2ccccc23)cc1 (stereo not given) | inactive: > 100 µM
Cc1cc(C)c(S(=O)(=O)N(CCCN)OCCON(CCCN)S(=O)(=O)c2c(C)cc(C)cc2C)c(C)c1 | inactive: 2.83 µM
Cc1cc(=O)oc2c(C)c3oc(CBr)cc3cc12 | inactive: 24.3 µM
CC1=NN(C(=O)c2ccccc2O)C(=O)/C1=C/c1c(O)ccc2ccccc12 | active: 0.71 µM
N=c1c2ccccc2nc2oc3cc([N+](=O)[O-])ccc3n12 | inactive: > 100 µM
CC1=NN(c2cccc(Cl)c2)C2(C1)SCC(=O)N2c1nc2ccccc2s1 (stereo not given) | inactive: 26.4 µM
C#Cc1c(C)c(/C=C/C(C)=C\C(=O)OC)n(C)c1C | inactive: > 100 µM
O=c1c(-c2ccccc2)c(SCCCN2CCN(c3cccc(Cl)c3)CC2)n(-c2ccccc2)c(=S)n1-c1ccccc1 | inactive: > 100 µM
CCOC(=O)c1cc(C)nc2c1c(=O)n(-c1ccccc1)c(=O)n2CCCCN1CCN(c2ncccn2)CC1 | inactive: 85.5 µM
O=C(O)CN1C(=O)OC(c2ccccc2)C1=O (stereo not given) | inactive: > 100 µM
CC1=NN(c2nc(N)nc(CO)n2)C(C)(C)C1 | inactive: > 100 µM
N#CC(C(=O)CCC(=O)Nc1ccc(Cl)cc1)c1ccccc1Cl (stereo not given) | inactive: > 100 µM
Nc1nc(Cl)cc(NC2(CO)CCC2)n1 | inactive: > 100 µM

Structure (SMILES) | GI50
CN1CC[N+](C)=C1c1ccccc1 | inactive: > 100 µM
O=c1cc(-c2ccccc2)[nH]c2cc(F)cc(F)c12 | inactive: 30.4 µM
CC1=C(Oc2ccccc2)C(CCC(=O)O)c2c(O)cc(Cl)c(O)c21 (stereo not given) | inactive: > 100 µM
CC1(C)OCC([C@H]2CC23SCCCS3)O1 (stereo not given in full) | inactive: > 100 µM
Cc1ccc2cc3cccc(C(=O)NCCN(C)C)c3nc2c1 | active: 1.07 µM
CC1(C)C2CCC3CC(CCC#N)CCC3C21C#N (stereo not given) | inactive: > 100 µM
COc1c(Cl)ccc(Cl)c1C(=O)NNC(=O)c1c(Cl)c(Cl)c(Cl)c(Cl)c1-c1nc2cc(C(=O)c3ccccc3)ccc2[nH]1 | inactive: > 100 µM
Cc1ccc([S+]([O-])C[C@](NC(=O)OCc2ccccc2)(Sc2ccccc2)C(F)F)cc1 (stereo not given in full) | inactive: 17.9 µM
O=C(O)C(Cc1ccc(O)cn1)NC(=O)C(F)(F)F (stereo not given) | inactive: > 100 µM
COc1cccc2ccc(C(=O)c3ccccc3)nc12 | inactive: > 100 µM
CSC(C1c2ccccc2N(c2ccc(C)cc2)C2=NC(=O)N(C)C(=O)C21Cl)S(=O)(=O)c1ccc(C)cc1 (stereo not given) | inactive: 21.6 µM
CC(C)(/N=N/C(C)(C)C(=O)NCCO)C(=O)NCCO | inactive: > 100 µM
Cc1nnc2n1N=C(c1cc(F)c(Cl)cc1Cl)/C(=C/c1ccc(-c3ccc([N+](=O)[O-])cc3)o1)S2 | inactive: > 100 µM
O=C(CC1(O)C(=O)Nc2c(Cl)cc(Cl)cc21)c1ccc2ccccc2c1 (stereo not given) | inactive: 13.2 µM
COc1ccc(N2C(=O)C3c4[nH]c5ccccc5c4C4CC(C)CC(C)C4C3C2=O)cc1 (stereo not given) | inactive: > 100 µM
COc1ccc(C2=C(Cl)c3cc(OC)c(OC)cc3C2Cl)cc1 (stereo not given) | inactive: 16 µM
C[C@]12CC[C@@H]3c4ccc(O)cc4CC[C@H]3[C@@H]1CC[C@@H]2OP(=O)(O)O | inactive: > 100 µM
C[C@@H](CC(O)C(O)C(C)(C)O)C1CCC23CC12CCC1[C@@]2(C)CCC(O)C(C)(C)C2CC(OC2OC(CO)C(O)C(O)C2O)[C@]13C (stereo not given in full) | inactive: > 10 µM
COC(=O)C(COC(=O)/C=C/c1ccc(OC(C)=O)c(OC(C)=O)c1)OC(=O)/C=C/c1ccc(OC(C)=O)c(OC(C)=O)c1 (stereo not given) | inactive: 12 µM
COc1cccc(OC)c1C(=O)OCc1ccccc1 | inactive: > 100 µM
COc1ccc(-c2oc3cc(OC)ccc3c(=O)c2O)cc1 | inactive: 4.43 µM
